# The supplement of paper PMC10126150
# Sequences with one replicate were seen in a single cluster, so their values are uncertain.
# System: ATP
# Assay: switch fluorescence ratio, 500 uM ATP over buffer (Cy3 cluster intensity, sum of 5 cycles each) (fold (ratio)); higher = stronger signal-on switching upon ATP binding; sequences stand for … in TCGTCGGCAGCGTCAGATGTGTATAAGAGACAGTTTTTTTTTTTTTTTTTTTTTTTTT…TC
# Settings: aptamer strand: ATP DNA aptamer (quencher-CACCTGGGGGAGTATTGCGGAGGAAGG + anchor), 100 nM annealed; ATP concentration: 500 uM; one replicate
# Procedure, shortened: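 Five buffer/ATP imaging cycles were run on Cy3-labelled switching-strand clusters on a modified Illumina MiSeq flow-cell, with NaOH stripping and re-annealing between cycles. In each cycle, clusters annealed to 100 nM quencher-labelled ATP aptamer were imaged in selection buffer, then after 15 min with 500 uM ATP at 22 °C. Per cluster, the fluorescence ratio is summed target-cycle over summed buffer-cycle Cy3 intensity, averaged per switch-domain sequence. Only clusters within 100-1000 RFU were kept.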
# 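Also: ATP exposure 15 min at 22 °C before imaging.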
row,Sequence,switch fluorescence ratio
1,GTGTATCTGG,0.937
2,GTGTATGCCT,0.956
3,GTGTATTCGT,0.996
4,GTGTCAAGAT,1
5,GTGTCCGAGT,0.996
6,GTGTCCTGAG,1
7,GTGTCGCAGA,0.945
8,GTGTCGCATT,0.996
9,GTGTCGGGGG,0.93
10,GTGTCTGGCA,1.01
11,GTGTGCACCA,1.02
12,GTGTGGAAGT,1.02
13,GTGTGGGCGT,0.989
14,GTGTGTTATT,0.993
15,GTGTTACCGT,0.989
16,GTGTTATCAG,0.977
17,GTGTTATCTT,0.98
18,GTGTTGAGTG,1.03
19,GTGTTGATAC,1.09
20,GTGTTGCTAG,0.986
21,GTGTTGTCCA,0.934
22,GTGTTTCTGT,0.972
23,GTGTTTGT,0.991
24,GTTAAAAGGA,0.975
25,GTTAAACTAT,1.01
26,GTTAACCCGA,0.985

row,Sequence,switch fluorescence ratio
1,GTTAAGGGGG,0.995
2,GTTAATGATA,0.986
3,GTTAATGGAC,0.993
4,GTTAATTGAA,1.03
5,GTTACCCCTT,1.06
6,GTTACCCTTC,1.06
7,GTTACCGACG,1.05
8,GTTACCGGGG,1
9,GTTACGGTAG,1.07
10,GTTACTCCTT,1.09
11,GTTACTCTAT,0.997
12,GTTAGACGTA,1.02
13,GTTAGCCGAT,1
14,GTTAGCGGGC,1.01
15,GTTAGCGGTC,1.05
16,GTTAGGAAAG,1
17,GTTAGGAGGT,0.981
18,GTTAGGTACC,0.962
19,GTTAGGTT,0.993
20,GTTAGTATGT,1.01
21,GTTAGTTATT,0.955
22,GTTATAATGT,0.99
23,GTTATACGTC,0.991
24,GTTATAGAAT,0.984
25,GTTATAGCTC,1
26,GTTATATATC,0.996

row,Sequence,switch fluorescence ratio
1,GTTATATATT,0.98
2,GTTATCCAGG,1.33
3,GTTATCTTC,1
4,GTTATGATAC,1.05
5,GTTATGCCTG,1
6,GTTATGCGAG,0.972
7,GTTATGGGCT,1.03
8,GTTATGTGAT,1.05
9,GTTATTAGAT,0.962
10,GTTATTTATC,1.01
11,GTTCAAGGAC,1.02
12,GTTCAGTGTC,1.09
13,GTTCAGTTGT,1.02
14,GTTCATCCAT,1.01
15,GTTCATGTTG,0.986
16,GTTCCAGATT,1.02
17,GTTCCCATAA,0.976
18,GTTCCCGTTC,1.05
19,GTTCCGTG,1.02
20,GTTCCTCGAG,1.08
21,GTTCGAATGG,1
22,GTTCGAGACT,1.01
23,GTTCGATTCC,1.02
24,GTTCGGACTT,1.03
25,GTTCGGATGT,0.987
26,GTTCGGTGCG,0.987

row,Sequence,switch fluorescence ratio
1,GTTCGTCAGG,1.04
2,GTTCTAACAC,0.994
3,GTTCTCACAG,1
4,GTTCTCCAGT,1.06
5,GTTCTCTAGC,0.961
6,GTTCTGGCG,0.96
7,GTTCTTGCCG,0.974
8,GTTCTTGGTA,1.01
9,GTTGAAAGGC,1.04
10,GTTGACCAAG,1.03
11,GTTGATGTAC,1.06
12,GTTGCAATCG,1.23
13,GTTGCCGTAA,0.975
14,GTTGCGAGAC,1.42
15,GTTGCGATGT,1.03
16,GTTGCGGAAA,1
17,GTTGCGTGTA,0.985
18,GTTGCTGAGG,1.01
19,GTTGCTGTC,0.933
20,GTTGGAACGT,0.961
21,GTTGGACGAG,0.968
22,GTTGGATT,1.02
23,GTTGGCTTGT,0.985
24,GTTGGGAAAG,1.02
25,GTTGGGATCT,0.979
26,GTTGGTACGC,1

row,Sequence,switch fluorescence ratio
1,GTTGTAGTT,0.989
2,GTTGTCAAAC,1.05
3,GTTGTCCGTC,1.02
4,GTTGTCCTGC,0.952
5,GTTGTGACGG,0.985
6,GTTGTGCACA,0.997
7,GTTGTGCTCC,1.06
8,GTTGTGGCTA,0.964
9,GTTGTTA,0.994
10,GTTGTTCACT,0.976
11,GTTGTTTATT,1.03
12,GTTTAACGAA,0.974
13,GTTTAAGGG,0.973
14,GTTTAATCAA,0.994
15,GTTTAGAGAT,0.996
16,GTTTATGTGT,0.992
17,GTTTCAGGTG,3.33
18,GTTTCATTTG,0.987
19,GTTTCCCACG,1.08
20,GTTTCGAACC,0.99
21,GTTTCGACTG,1.02
22,GTTTCGAGAG,1.04
23,GTTTCTCGCA,1.28
24,GTTTGAAACG,0.983
25,GTTTGAACTT,1.04
26,GTTTGAAGTC,0.946

row,Sequence,switch fluorescence ratio
1,GTTTGATCCG,0.944
2,GTTTGCCTTG,1.01
3,GTTTGCTCGT,1.03
4,GTTTGGCGCA,0.974
5,GTTTGGGATC,1.03
6,GTTTGTAAGG,1.01
7,GTTTGTCACT,1.01
8,GTTTGTCTAT,0.955
9,GTTTGTGACC,0.985
10,GTTTTAACTG,0.998
11,GTTTTAATAA,1.01
12,GTTTTACTTC,1.01
13,GTTTTCCTGG,1
14,GTTTTCGCTC,1.04
15,GTTTTCTTTT,1.03
16,GTTTTGACGA,0.976
17,GTTTTGCGCC,1.03
18,GTTTTGGCCT,1.08
19,GTTTTTTCCA,1.05
20,GTTTTTTCT,0.972
21,TAAAAAAAC,1.13
22,TAAAAACGCT,1.01
23,TAAAAAGTGT,1.02
24,TAAAAAGTTC,1.05
25,TAAAACCGAT,1.02
26,TAAAACGATG,1.03

row,Sequence,switch fluorescence ratio
1,TAAAACGCCA,1.09
2,TAAAAGCCTC,1
3,TAAAAGTGTC,0.982
4,TAAAATAAAC,1.01
5,TAAAATAAGA,1.02
6,TAAAATGAGC,0.958
7,TAAACACTTC,1.09
8,TAAACC,1.08
9,TAAACCATGA,1.01
10,TAAACGCTAT,1.16
11,TAAACGTA,1.05
12,TAAACGTGTT,1.05
13,TAAACTGACT,1.11
14,TAAACTTGCA,1.01
15,TAAACTTTGA,1.06
16,TAAAGACAGG,0.977
17,TAAAGACCT,1.41
18,TAAAGCAAGG,1.09
19,TAAAGCAATC,1.15
20,TAAAGCAGCA,1.04
21,TAAAGCCCTA,0.98
22,TAAAGCGCAA,2.43
23,TAAAGGGG,1.09
24,TAAAGGTATT,1.05
25,TAAAGTGTTC,1.03
26,TAAATATTGA,1.01

row,Sequence,switch fluorescence ratio
1,TAAATCCTTG,0.993
2,TAAATCGACG,1.04
3,TAAATGGATG,0.966
4,TAAATTCCTG,1.02
5,TAACAACTTC,1.02
6,TAACACATC,1.03
7,TAACACGTTA,1.24
8,TAACAGACT,1.1
9,TAACAGCCA,1.05
10,TAACAGGGCC,1.05
11,TAACAGTGCG,0.963
12,TAACATGCAC,1.14
13,TAACCACAGG,1.17
14,TAACCACATC,1.11
15,TAACCAGGCT,0.984
16,TAACCATTGA,1.03
17,TAACCCACGG,1.16
18,TAACCCCATT,1.02
19,TAACCCGGTA,1.03
